According to PubChem BioAssay AID651567 (National Center for Advancing Translational Sciences (NCATS), 2012):
About 10 (0.8%) of roughly 1,200 compounds were called active. Not shown: some 4% with an inconclusive outcome. The call rests on the fitted dose curve; in most records, active means well fitted inhibition curve with a large enough effect; inconclusive means small, poorly fitted or top-dose-only effect; inactive means no such curve, though single readings can be large or run the other way. Some of the results follow.

assay: qHTS Assay to Find Inhibitors of Chronic Active B-Cell Receptor Signaling: Hit Validation in OCI-Ly3 Assay; details: OCI-Ly3 IkB-luciferase reporter, Chroma-Glo luminescence, 4 h; series mostly up to 46.1 µM; activity change, negative = inhibition: at the top concentration
Outline: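 Readout is dual-colour luminescence: IkB-alpha-luciferase fusion (green) against unfused luciferase (red), plus their ratio, scaled between basal cells and 10 uM MG-132. OCI-Ly3 cells, 0.5% FBS IMDM, compound with doxycycline (80ng/ml solution), 4 hrs at 37C; curves fitted and classed.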
On the % scale 0 is the no-effect control and ±100 the full control effect.

Activity change, negative = inhibition, inactive:
COc1ccc(OC)c(C(=O)COC(=O)c2[nH]c(C)c(C(C)=O)c2C)c1 -2.83%
Cc1ccc2[nH]c(C(=O)NN=C3CCCCC3)c(-c3ccccc3)c2c1 -1.32%
COc1ccc(/C=N/NC(=O)c2[nH]c3ccc(Br)cc3c2-c2ccccc2)cc1 -4.11%
Cc1cnn(CCC(=O)NNC(=S)NCC(C)C)c1 -0.0233%
CCCn1nc(Oc2nc(N(C)C)nc(N(C)C)n2)ccc1=O -1.24%
CCOCCOC(=O)c1[nH]c2c(c1C)C(=O)CC(c1cccs1)C2 (stereo not drawn) -0.135%
CC1CCCN(c2ccc([N+](=O)[O-])cc2C(=O)c2ccccc2)C1 (stereo not drawn) -3.9%
COc1ccccc1CNC(=O)CSc1ccc(C)cc1 -0.623%
COc1ccc(C(=O)n2c(-c3ccco3)nc3ccccc32)cc1 -2.89%
COc1cc(OC)c2c(-c3cccc(-c4ccc(O)cc4)c3)cc(=O)oc2c1 2.26%
Cn1c(=O)n(Cc2ccccc2Br)c2ccccc21 -0.348%
O=C(Nc1nc2ccc(F)cc2s1)c1ccccn1 14.8%
COc1cc(C(=O)N/N=C(\C)c2ccc3c(c2)OCO3)cc(OC)c1OC -2.99%
O=C(COc1ccccc1-c1ccccc1)NN=C1CCCC1 -0.665%
CSc1nc(N(C)NC(=O)c2ccc(Cl)cc2)c2ccccc2n1 -2.95%
Cc1ccc(COC(=O)c2cc([N+](=O)[O-])ccc2N2CCOCC2)cc1 -1.34%
Cc1ccccc1NC(=S)c1ccc2ccccc2n1 -1.45%
CCOc1ccc(N(CC(=O)Nc2ccccc2OC)S(=O)(=O)c2ccccc2)cc1 -3.72%
COc1ccc(NS(=O)(=O)c2cc(NC(=O)CNC(=O)c3cccc(OC)c3)ccc2C)cc1 -3.48%
CCOc1ccc(C(=O)c2cc([N+](=O)[O-])ccc2N2CCOCC2)cc1 -3.09%
O=C(NN=C1CCCC1)c1[nH]c2ccc(Cl)cc2c1-c1ccccc1 -2.63%
COc1cc2c(c(OC)c1OC)-c1ccc(OC)c(=O)cc1[C@@H](NC(C)=O)CC2 -2.3%
ClC(Cl)(Cl)c1nc2ccccc2n2nncc12 18%
CCOC(=O)N1CCC(NC(=O)c2ccc3c(c2)N=C(C)c2c(C)ccc(C)c2S3)CC1 -7.89%
O=[N+]([O-])c1cc(O)c2ncccc2c1 -2.41%
O=C(Nc1ccc([N+](=O)[O-])cc1)Nc1ccon1 -2.62%
CC(C)(C)NC(=S)N/N=C/c1cccnc1 -0.0928%
COc1cc(C(c2sc3nc(C)nn3c2O)N2CCN(c3ccccc3)CC2)cc(OC)c1OC (stereo not drawn) -0.839%
COc1ccc(Nc2cc3n(c(=O)n2)CCc2cc(OC)c(OC)cc2-3)c(C)c1 -1.29%
COc1cc(C(=O)Nc2ccc(C)cc2)c2ccccc2n1 -1.4%
CCOC(=O)c1ccccc1NS(=O)(=O)c1ccc(OCC)cc1 -2%
CCCN1C(=O)C(=O)c2cc(Cl)ccc21 -8.1%
COc1ccc(C)cc1NC(=O)CNC(c1ccccc1)c1ccc(C)cc1 (stereo not drawn) -3.67%
CCN(c1ccccc1)S(=O)(=O)c1ccc(C(=O)NC2CCN(Cc3ccccc3)CC2)cc1 -2.07%
CC1=CC(C)(C)N(S(=O)(=O)c2ccc(C)cc2)c2cc(C)ccc21 -2.26%
O=C1NC(=O)C(=C2CCCCCC2)S1 0.0471%
O=C(N/N=C/c1ccc([N+](=O)[O-])o1)c1cc(-c2ccc(-c3ccccc3)cc2)nc2ccccc12 -0.34%
CCOc1ccc2c(c1)C(C)=CC(C)(C)N2S(=O)(=O)c1ccc(C)cc1 -2.31%
CCOC(=O)CSc1nc(C)c2cccc(C)c2n1 0.225%
COc1cc(OC)c2c(-c3cccc(-c4cccc(N)c4)c3)cc(=O)oc2c1 -12.3%
COc1cc2c(c(OC)c1OC)C(c1ccc(C)cc1)CC(=O)O2 (stereo not drawn) -3.11%
COc1ccc(-c2sc3cc(OC)c(OC)cc3c2C#CC(C)(C)O)cc1 -1.02%
CSc1ccc(COC(=O)c2cc([N+](=O)[O-])ccc2N2CCOCC2)cc1 -2%
CCCC(=O)O[C@]1(C(=O)CO)CC[C@H]2[C@@H]3CCC4=CC(=O)CC[C@]4(C)[C@H]3[C@@H](O)C[C@@]21C -1.65%
COc1ccc(-c2nn(-c3ccccc3)cc2/C=C/C(=O)O)cc1[N+](=O)[O-] 0.307%
CCOc1ncccc1C(=O)N1CCN(c2cccc(C)c2C)CC1 -3.74%
O=C1NC(=Nc2ccc(O)cc2)S/C1=C\C=C\c1ccco1 -4.14%
CCOC(=O)C(NC(=O)N(C)C)(Nc1sc(C)c(CC)c1C#N)C(F)(F)F (stereo not drawn) -1.3%
NCCNC(=O)Cc1ccc(NC(=O)Cc2ccc(Nc3ncnc4c3ncn4[C@@H]3O[C@H](CO)[C@@H](O)[C@H]3O)cc2)cc1 -0.207%
CCOc1cc(Br)c(C=O)cc1OCC -4.55%
COc1cc(C(=O)N2CCN(c3cc(Cl)ccc3Cl)CC2)cc(OC)c1OC -4.65%
Cc1cc(=O)[nH]c2ccc(S(=O)(=O)Nc3ccc(O)cc3)cc12 -0.264%
COc1ccc(N(C(=O)c2ccccc2C)S(=O)(=O)c2cccs2)cc1 -2.69%
Cc1cccc(C)c1OCC(=O)N/N=C/C=C/c1ccco1 -0.431%
COc1cccc2sc(Nc3nnc(-c4ccccc4Cl)o3)nc12 16%
CCCCNC(=S)NNC(=O)CCn1nc(C)c(Br)c1C -1.2%
COc1ccccc1C1=NOC(COc2ccc3c(C)cc(=O)oc3c2)C1 (stereo not drawn) -3.45%
COc1ccc(S(=O)(=O)N2CCOCC2)cc1NC(=O)/C=C/c1ccc(F)cc1 -0.49%
COc1ccc(Nc2nc(-c3c(C)nc4ncccn34)cs2)cc1 -6.49%
O=C(NC(=S)NC1CCSC1=O)c1cccs1 (stereo not drawn) -1.27%
CCO[C@H]1OC(C(=O)NCc2nc3ccccc3[nH]2)=C[C@@H](C2CC2)[C@@H]1CCCO -0.732%
O=C(Nc1ncc(Cc2ccc(SC(F)F)cc2)s1)c1ccc(OC(F)F)cc1 0.809%
COc1ccc(CN(C)C(=O)Cn2cnc3c(NCc4ccccc4)ncnc32)cc1OC -0.481%
NC(=S)N=Nc1c(O)n(Cc2ccc(F)cc2)c2ccccc12 -12.9%
COc1ccc(-c2nnc(SCC(=O)NCc3ccccc3)nc2-c2ccc(OC)c(OC)c2)cc1OC -2.42%
COc1ccc(CCNC(=O)C(=O)c2c(C)n(C)c3ccccc23)cc1OC -0.335%
Cc1ccc(/C(C#N)=C\c2ccc(N3CCOCC3)o2)cc1 -6.61%
Cc1ccccc1NCC(=O)c1ccc(Br)cc1 -0.332%
